Results are given in words; binding and its absence hold for the method and conditions named. Binding seen in cells or lysates may run through a third protein. Some results given as binding are weak or reduced against the parent protein; the word gives no strength. Tags and fused reporters may be left off the sequences shown.

Protein sequences, listed by entry. Tags and fused reporters are not part of them.
UniProt Q99836: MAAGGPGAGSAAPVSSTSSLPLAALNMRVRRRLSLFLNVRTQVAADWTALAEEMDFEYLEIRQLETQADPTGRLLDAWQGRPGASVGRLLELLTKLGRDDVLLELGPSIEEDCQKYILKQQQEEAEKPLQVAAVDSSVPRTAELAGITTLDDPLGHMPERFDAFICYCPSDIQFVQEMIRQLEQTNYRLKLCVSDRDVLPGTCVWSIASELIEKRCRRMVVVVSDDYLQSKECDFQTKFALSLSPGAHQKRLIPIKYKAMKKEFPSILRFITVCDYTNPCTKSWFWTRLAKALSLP
UniProt Q8IUC6: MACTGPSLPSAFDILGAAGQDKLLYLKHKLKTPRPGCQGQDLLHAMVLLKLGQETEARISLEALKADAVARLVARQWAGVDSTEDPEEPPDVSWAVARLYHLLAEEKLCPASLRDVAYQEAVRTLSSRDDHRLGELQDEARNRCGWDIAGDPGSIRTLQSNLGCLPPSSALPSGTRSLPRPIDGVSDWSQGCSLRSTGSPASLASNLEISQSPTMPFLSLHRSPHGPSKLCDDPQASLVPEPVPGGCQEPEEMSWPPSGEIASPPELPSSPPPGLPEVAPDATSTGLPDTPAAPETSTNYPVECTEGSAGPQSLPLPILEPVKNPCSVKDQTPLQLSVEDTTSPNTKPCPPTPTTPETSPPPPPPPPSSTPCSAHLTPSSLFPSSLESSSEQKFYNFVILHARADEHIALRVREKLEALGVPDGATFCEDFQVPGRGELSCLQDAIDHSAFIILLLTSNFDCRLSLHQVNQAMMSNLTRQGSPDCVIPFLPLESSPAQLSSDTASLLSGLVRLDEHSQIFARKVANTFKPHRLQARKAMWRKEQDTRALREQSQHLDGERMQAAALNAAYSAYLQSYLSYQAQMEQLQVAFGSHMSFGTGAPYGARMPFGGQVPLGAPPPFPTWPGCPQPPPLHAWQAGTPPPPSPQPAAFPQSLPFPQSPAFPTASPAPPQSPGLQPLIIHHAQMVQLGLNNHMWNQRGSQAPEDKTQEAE

Test [1] addresses T1, SARM1-FLAG (epitope-tagged SARM1 expressed endogenously with a triple FLAG tag and double strep tag on the C-terminal end, Sarm1^FLAG) (mouse (endogenous in Sarm1^FLAG iBMDMs)) (UniProt Q6PDS3).
T1 sequence: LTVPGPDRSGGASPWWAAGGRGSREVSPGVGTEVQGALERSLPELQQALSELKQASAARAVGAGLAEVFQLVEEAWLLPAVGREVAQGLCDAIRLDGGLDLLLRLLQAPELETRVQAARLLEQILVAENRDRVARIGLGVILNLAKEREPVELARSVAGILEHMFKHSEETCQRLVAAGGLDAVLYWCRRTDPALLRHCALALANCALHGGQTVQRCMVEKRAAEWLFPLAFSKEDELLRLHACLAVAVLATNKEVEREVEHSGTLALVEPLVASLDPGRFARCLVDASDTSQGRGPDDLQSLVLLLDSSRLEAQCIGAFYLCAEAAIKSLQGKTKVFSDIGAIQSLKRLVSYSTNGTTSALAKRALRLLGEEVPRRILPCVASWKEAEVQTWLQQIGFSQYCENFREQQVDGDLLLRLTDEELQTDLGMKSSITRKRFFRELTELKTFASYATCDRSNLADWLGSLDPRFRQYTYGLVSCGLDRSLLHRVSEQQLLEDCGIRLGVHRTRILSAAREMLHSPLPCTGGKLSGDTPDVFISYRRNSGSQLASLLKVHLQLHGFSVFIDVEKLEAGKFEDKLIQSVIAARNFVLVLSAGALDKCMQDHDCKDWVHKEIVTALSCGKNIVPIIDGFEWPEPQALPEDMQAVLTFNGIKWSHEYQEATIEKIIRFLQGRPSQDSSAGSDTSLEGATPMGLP
As to the kind of experiment: co-IP; as a1 but non-infected Sarm1^FLAG iBMDMs transfected with MyD88-HA or TRIF-HA; anti-FLAG antibody and Protein A/G Plus agarose.

The target of test [2] is T1, SARM1-FLAG (epitope-tagged SARM1 expressed endogenously with a triple FLAG tag and double strep tag on the C-terminal end, Sarm1^FLAG) (mouse (endogenous in Sarm1^FLAG iBMDMs)). Briefly: co-IP; Sarm1^FLAG iBMDMs transfected with MyD88-HA or TRIF-HA, infected 20 h later with Kp52145 (MOI 100), collected at 3 h; RIPA lysates; anti-FLAG antibody and Protein A/G Plus agarose, 4°C; preimmune mouse IgG as negative control.

Test [3] addresses T2, FLAG-SARM1 (retrovirally expressed in sarm1-/- iBMDMs) (mouse) (UniProt Q6PDS3).
T2 sequence: T1 sequence
Briefly: co-IP; as a3 but non-infected sarm1-/- iBMDMs expressing FLAG-SARM1; anti-FLAG (M2) beads; immunoblot with anti-SARM1 and anti-AIM2.

Test [4] addresses T2, FLAG-SARM1 (retrovirally expressed in sarm1-/- iBMDMs) (mouse). Briefly: co-IP; sarm1-/- iBMDMs expressing FLAG-SARM1, infected with Kp52145 for 24 h; anti-FLAG (M2) beads; immunoblot with anti-SARM1 and anti-AIM2.

For MyD88-HA (from UniProt Q99836 1-296), the binding entry in test [1] is “no binding (condition: non-infected cells)”; in test [2], “binds”.
With TRIF-HA (from UniProt Q8IUC6 1-712), the binding entry in test [1] is listed as “no binding (condition: non-infected cells)”; in test [2], “binds”.

B1: AIM2 (absent in melanoma 2) (protein, UniProt Q91VJ1 1-354)
chain: MESEYREMLLLTGLDHITEEELKRFKYFALTEFQIARSTLDVADRTELADHLIQSAGAASAVTKAINIFQKLNYMHIANALEEKKKEAERKLMTNTKKRGTQKVENRSQAENCSAASATRSDNDFKEQAATEVCPQAKPQKKQMVAEQEAIREDLQKDPLVVTVLKAINPFECETQEGRQEIFHATVATETDFFFVKVLNAQFKDKFIPKRTIKISNYLWHSNFMEVTSSSVVVDVESNHEVPNNVVKRARETPRISKLKIQPCGTIVNGLFKVQKITEEKDRVLYGIHDKTGTMEVLVLGNPSKTKCEEGDKIRLTFFEVSKNGVKIQLKSGPCSFFKVIKAAKPKTDMKSVE
As for B1, the values for the binding entry in test [3] and in test [4] were “no binding (condition: non-infected cells)” and “binds”, respectively.

The values are drawn from publication PMC9638020.
